# Experimental data as given in PubChem BioAssay AID662 (National Center for Advancing Translational Sciences (NCATS), 2007).
# Among all 71,000 compounds or so, about 1,800 (2.5%) were called active. Inconclusive results, whose numbers are uncertain, are shown with a selection of clear calls. Calls follow the shape of the dose curve; as a rule, active = well fitted activation curve with a large enough effect in the signal ratio, with a control signal flat (not every such curve was filed as active); inconclusive = small, poorly fitted or top-dose-only effect, or effect the other way, or a change in a side signal; inactive = flat fitted curve, though single readings scatter; the % refers to the signal ratio. Potencies beside an inconclusive call are fits to weak or partial responses and may not hold up.
# Experiment: Cell signaling CRE-BLA (Fsk stim); as to activity change, negative = inhibition: % of control where 0% means no effect
# Settings: CHO CRE-bla reporter (cAMP response element driving beta-lactamase), forskolin EC10, beta-lactamase ratio; activity change, negative = inhibition: at 38.2 µM (top of the series) unless noted
# How it was run: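 Forskolin analogue NKH 477 at EC10 stimulated CRE-driven beta-lactamase in CHO cells alongside compound dilution series. Beta-lactamase was measured with CCF4, excitation 405 nm, emission ratio 460/530 nm.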
# Potency is read from the fitted curve at half-maximal effect; tags tell the direction and shape of the fitted curve.
SMILES,"activity change, negative = inhibition",Potency
COc1ccc(OC)c(C2=Nn3c(nnc3-c3cc(OC)c(OC)c(OC)c3)SC2)c1,inconclusive: 3.71%,–
Cc1ccc(S(=O)(=O)NC(C)C(=O)NC2CCCCCC2)cc1 (stereo unspecified),inconclusive: -3.19%,–
CCOC(=O)C1CN(c2cc3c(cc2F)c(=O)c(C(=O)O)cn3CC)OC1C(=O)OCC (stereo unspecified),inactive,–
COCCCNC(=O)CCn1c(=O)c2ccccc2n(CC(=O)Nc2cc(Cl)ccc2C)c1=O,inconclusive: -2.4%,–
COC(=O)CCS(=O)(=O)c1ccc(Cl)c(Cl)c1,inactive,–
Cc1c(NC(=O)c2cc(-n3cnnc3)ccc2Cl)cccc1-c1nc2ccccc2o1,–,"inconclusive: 0.794 µM [falling, full curve]"
CCOC(=O)N1CCN(C(=O)Nc2sc3nc4n(c(=O)c3c2C)CCC(C)CC4)CC1 (stereo unspecified),–,"inconclusive: 10 µM [rising, partial curve]"
Cc1ccc(C(=O)CSc2n[nH]c(C)n2)cc1,inconclusive: 25.7% [at 7.6 µM],–
COCC(=O)N1CCC2(CC1)CCN(c1cccc(-c3ccccc3)c1)CC2,inactive,–
COC(=O)c1ccccc1NC(=O)NCc1ccc2c(c1)OCO2,inconclusive: 19.5%,–
O=C(CSc1nnc(Cc2cccs2)n1Cc1ccco1)Nc1ccc(Br)cc1,inconclusive: -28.8%,–
CCOc1cc(C2C(C#N)=C(N)SC(N)=C2C#N)ccc1OCCN1CCOCC1,–,"inconclusive: 10 µM [rising, single point]"
CCOc1ccc(-n2c(=O)c3sccc3n(CC(=O)NCc3ccco3)c2=O)cc1,inconclusive: 0.888%,–
COc1ccccc1NC(=O)CSc1nc2ccccc2c(=O)n1CCNC(C)=O,–,"inconclusive: 12.6 µM [rising, single point]"
CC1(C)CC(=O)c2c(noc2-c2ccccc2)C1,–,"inconclusive: 10 µM [rising, partial curve]"
CCOC(=O)N1CCC2(CC1)C(C#N)=C(N)Oc1c2sc2nc(C)cc(C)c12,–,"inconclusive: 3.98 µM [rising, partial curve]"
COc1ccc(-c2nc3cnc(N4CCNCC4)nc3n(CCc3ccccc3)c2=O)cc1,–,"inconclusive: 0.316 µM [rising, full curve]"
COc1ccccc1S(=O)(=O)Cc1ccc(C(=O)N2CCN(c3cccc(Cl)c3)CC2)o1,inactive,–
OC[C@@H]1O[C@@H](n2cnc3cncnc32)[C@@H](O)[C@H]1O,inconclusive: -23.7%,–
CCOc1cc(CNc2ccccc2SC)ccc1O,inconclusive: -2.68% [at 7.6 µM],–
CC(C)(C)C(=O)C(Oc1cccc2nonc12)n1cncn1 (stereo unspecified),inactive,–
CC(=O)c1c(C)[nH]c(C(=O)CSc2nnc(CN3CCCCCC3=O)n2-c2ccccn2)c1C,–,"inconclusive: 5.01 µM [falling, single point]"
Cc1nc(N2CCCC2)c2nnn(Cc3ccccc3Cl)c2n1,–,active: 2.51 µM
c1ccc(Nc2ncnc3ccc(-c4ccc5c(c4)OCO5)cc23)cc1,–,"inconclusive: 12.6 µM [rising, single point]"
COc1ccc(-n2c(=O)c(CCc3ccccc3)nc3cnc(OC)nc32)cc1,inactive,–
CC(C(=O)OCc1nnc(-c2ccccc2)o1)N1C(=O)c2ccccc2C1=O (stereo unspecified),inconclusive: -7.01%,–

SMILES,"activity change, negative = inhibition",Potency
O=C(CSc1nc2c(cnn2-c2ccc(F)cc2)c(=O)[nH]1)N1CCCCCC1,inconclusive: 26.6%,–
CCc1ccc2[nH]c(=O)c(CN(CCCN3CCOCC3)C(=O)Nc3cccc(Cl)c3)cc2c1,–,"inconclusive: 3.16 µM [rising, single point]"
COc1ccc(N2CCN(CC(=O)Nc3c(C)cc(C)cc3C)CC2)cc1,inconclusive: 3.92%,–
c1ccc(CNc2ncnc3c2cnn3-c2ccccc2)cc1,–,"inconclusive: 12.6 µM [rising, single point]"
CC(=O)CSc1nc2ccc(Nc3nc(N4CCOCC4)nc(N4CCOCC4)n3)cc2s1,–,"inconclusive: 10 µM [rising, partial curve]"
C[C@@H](C(=O)Nc1ccc2ccccc2c1)[C@@H]1C[C@@]1(C)[C@@H](NC(=O)c1ccncc1Cl)c1ccccc1,inactive,–
Nc1nc(SCC(=O)NCc2ccccc2)n[nH]1,–,"inconclusive: 3.98 µM [falling, single point]"
Nc1cccc2c(N)cccc12,inactive,–
COc1cc(NC(=O)Cn2ncc3c2-c2ccccc2OC3)cc(OC)c1OC,inconclusive: 24.5%,–
COc1c(S(=O)(=O)n2nc(C)cc2C)ccc(Cl)c1Cl,inactive,–
CC(=O)NCCNc1nc(-c2cccnc2)nc2ccccc12,–,active: 7.94 µM
CCc1nnc(NC(=O)CSc2nnc(-c3ccco3)n2CC)s1,inactive,–
Cc1nnc(SCCC(=O)Nc2nc(-c3ccccc3)ns2)s1,inactive,–
Cc1cccc(N2CCN(C(=O)c3ccncc3)CC2)c1C,inactive,–
O=C(CSc1nc2ccccc2o1)Nc1ccccc1,inconclusive: -13.7% [at 7.6 µM],–
c1ccc(CCc2nn3c(C4COc5ccccc5O4)nnc3s2)cc1 (stereo unspecified),inactive,–
CC(C)c1cc(NC(=O)C(C)(C)C)cc(C(C)C)c1O,–,"inconclusive: 2 µM [rising, partial curve, poor fit]"
COc1cccc(Cn2c(=O)cnc3cncnc32)c1,–,"inconclusive: 7.94 µM [rising, partial curve]"
COc1ccc(C2C3=C(CCCC3=O)Nc3nc4ccccc4n32)cc1OC (stereo unspecified),inactive,–
COC(=O)c1ccc(CN2C(=O)NC3(CCCc4ccccc43)C2=O)o1 (stereo unspecified),–,"inconclusive: 0.126 µM [falling, full curve]"
COC(=O)[C@@]1(Cc2ccccc2)[C@H]2c3cc(C(=O)N4CCCC4)n(Cc4ccccn4)c3C[C@H]2CN1C(=O)c1ccccc1,–,"inconclusive: 25.1 µM [rising, single point]"
COC(=O)c1ccc2c(=O)n(CC3CCCO3)c(SCC(=O)Nc3ccccc3OC)nc2c1 (stereo unspecified),–,active: 12.6 µM
C=CCSC1=C(C#N)C(c2cccc(OC)c2)CC(=O)N1 (stereo unspecified),inactive,–
COc1ccc(C(C)(C)C)cc1NC(=O)Nc1ccc2c(c1)OCO2,inconclusive: -8.87%,–
COc1ccc(Cn2nnnc2CN(Cc2cc3ccc(C)cc3[nH]c2=O)C2CCCC2)cc1,–,"inconclusive: 12.6 µM [rising, partial curve]"
